{"source": "PubChem BioAssay AID588342", "about": "(National Center for Advancing Translational Sciences (NCATS), 2011)", "note": "The whole screen tested about 360,000 compounds, of which about 25,000 (6.9%) were called active. Inconclusive results, whose numbers are uncertain, are shown with a selection of clear calls. The call rests on the fitted dose curve; in most records, active means well fitted inhibition curve with a large enough effect; inconclusive means small, poorly fitted or top-dose-only effect; inactive means flat fitted curve, though single readings scatter. Potencies of inconclusive entries are doubtful fits and often do not repeat. Potency means the concentration at half of the fitted maximal effect; tags describe the fitted curve by direction and shape.", "data": [{"biological_target": "Luciferin 4-monooxygenase (Photinus pyralis) (UniProt P08659)", "sequence (P08659 whole entry, looked up)": "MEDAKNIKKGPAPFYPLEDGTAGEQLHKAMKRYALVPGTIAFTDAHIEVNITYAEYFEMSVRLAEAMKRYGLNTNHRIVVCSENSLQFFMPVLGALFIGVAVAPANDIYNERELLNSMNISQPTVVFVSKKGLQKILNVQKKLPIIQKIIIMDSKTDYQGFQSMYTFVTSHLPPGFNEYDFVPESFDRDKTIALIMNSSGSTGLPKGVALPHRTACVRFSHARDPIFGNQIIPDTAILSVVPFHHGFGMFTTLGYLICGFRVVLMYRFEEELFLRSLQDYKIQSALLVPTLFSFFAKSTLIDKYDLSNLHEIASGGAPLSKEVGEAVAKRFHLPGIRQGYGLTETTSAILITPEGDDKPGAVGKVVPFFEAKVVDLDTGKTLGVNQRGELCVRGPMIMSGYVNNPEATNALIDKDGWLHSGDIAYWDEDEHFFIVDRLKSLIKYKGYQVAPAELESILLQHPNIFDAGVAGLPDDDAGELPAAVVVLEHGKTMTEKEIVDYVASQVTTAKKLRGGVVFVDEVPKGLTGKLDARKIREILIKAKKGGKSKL", "test": "qHTS profiling assay for firefly luciferase inhibitor/activator using purifed enzyme and Km concentrations of substrates (counterscreen for miR-21 project); further: nearly all actives have a fitted effect of over 55% in size;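 on activity change, negative = inhibition: plate controls were vehicle for no effect and reference inhibitor for full effect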", "details": "purified FLuc, luminescence inhibition; activity change, negative = inhibition: at 57.5 µM (top of the series)", "method_in_brief": "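Purified P. pyralis luciferase (10nM final) with 10uM D-luciferin and 10uM ATP (Km levels) in 50mM Tris acetate pH 7.5, 10mM Mg acetate, 0.01% Tween-20, 0.05% BSA; qHTS 6-point titration, ~60 µM downward; luminescence read.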", "values": [{"molecule": "C=CCNc1nc(-c2ccc([N+](=O)[O-])cc2)cs1", "Potency": "active: 3.01 µM"}, {"molecule": "Cc1c(OCC(=O)N2CCC(C(=O)O)CC2)ccc2c3c(c(=O)oc12)CCC3", "Potency": "inconclusive: 21.3 µM [inhibitor, partial curve, poor fit]"}, {"molecule": "Cc1ccc2c(c1)COc1c3ccc(C(=O)NCCO)cc3nn1-2", "Potency": "active: 4.78 µM"}, {"molecule": "C/C(CC(=O)Nc1ccc(Cl)c(C(F)(F)F)c1)=N\\NC(N)=S", "Potency": "inconclusive: 26.9 µM [inhibitor, partial curve]"}, {"molecule": "CCOc1ccc(NC(=O)CN2C(=O)C(c3ccccc3)=NC23CCC(C)CC3)cc1", "note": "(stereo not drawn)", "activity change, negative = inhibition": "inactive: -7.33%"}, {"molecule": "COc1ccc(OCC(=O)Nc2cccc(-c3nc4ccccc4o3)c2)cc1", "Potency": "inconclusive: 3.38 µM [inhibitor, full curve]"}, {"molecule": "CC(Sc1n[nH]c(-c2cccs2)n1)C(=O)Nc1ccc(C(N)=O)cc1", "note": "(stereo not drawn)", "activity change, negative = inhibition": "inactive: -19.4%"}, {"molecule": "COC(=O)c1cc(CSc2nc3ccccc3[nH]2)oc1C", "Potency": "active: 7.57 µM"}, {"molecule": "CCOC(=O)c1c(NC(=O)c2cccnc2)sc(C)c1C", "activity change, negative = inhibition": "inactive: 4.5%"}, {"molecule": "O=C(NCc1cccc(Cl)c1)c1cc2ccc3cccnc3c2[nH]1", "activity change, negative = inhibition": "inactive: -5.63%"}, {"molecule": "CC(C)COc1cccc(C(=O)Nc2ccc(-c3nc4ncccc4o3)cc2)c1", "activity change, negative = inhibition": "inactive: -0.826%"}, {"molecule": "CC1CCN(C(=O)Cn2cc(SCC(=O)NCc3ccccc3Cl)c3ccccc32)CC1", "Potency": "inconclusive: 13.5 µM [inhibitor, partial curve, poor fit]"}, {"molecule": "CCC(=O)Nc1cc(C)c(O)c(-c2nc3ncccc3o2)c1", "activity change, negative = inhibition": "inactive: 3.38%"}, {"molecule": "O=C(c1cnn2c(C(F)F)cc(-c3ccccc3)nc12)N1CCN(Cc2ccc3c(c2)OCO3)CC1", "activity change, negative = inhibition": "inactive: -1.31%"}, {"molecule": "NC(=S)N/N=C/C=C/c1ccccc1", "activity change, negative = inhibition": "inactive: -15.6%"}, {"molecule": "CSCCC(NC(=O)c1ccc(Cl)cc1Cl)C(=O)OC1CCCCC1=O", "note": "(stereo not drawn)", "Potency": "inconclusive: 21.3 µM [inhibitor, partial curve, poor fit]"}, {"molecule": "COc1ccccc1C(=O)COC(=O)c1cccc(S(=O)(=O)N2CCCC2)c1", "Potency": "inconclusive: 15.1 µM [inhibitor, partial curve]"}, {"molecule": "c1ccc2cc(-c3csnn3)ccc2c1", "Potency": "inconclusive: 21.3 µM [inhibitor, partial curve, poor fit]"}, {"molecule": "O=C(NCCCc1ccccc1)C1CCN(c2nnc(-n3cccc3)s2)CC1", "Potency": "inconclusive: 23.9 µM [inhibitor, single point]"}, {"molecule": "Cc1ccc(-c2ccc(/C=N/N=C3/NC(=O)C(CC(=O)O)S3)o2)c([N+](=O)[O-])c1", "note": "(stereo not drawn)", "Potency": "inconclusive: 21.3 µM [inhibitor, single point]"}, {"molecule": "O=C(CSc1cn(Cc2ccccc2)c2ccccc12)N1CCOCC1", "Potency": "active: 23.9 µM"}, {"molecule": "COc1cccc(NC(=O)Nc2ccc(C(C)(C)C)cc2)c1", "Potency": "active: 3.01 µM"}, {"molecule": "O=C(COC(=O)Cc1ccccc1F)Nc1cccc(F)c1", "Potency": "inconclusive: 23.9 µM [inhibitor, single point]"}, {"molecule": "CC(=O)OCC1=C(C(=O)O)N2C(=O)C(NC(=O)c3ccc(COc4c(C)cccc4Cl)o3)C2SC1", "note": "(stereo not drawn)", "Potency": "inconclusive: 26.9 µM [inhibitor, partial curve, poor fit]"}, {"molecule": "CCc1ccc(N2C(=O)C3CCCN3C2=S)cc1", "note": "(stereo not drawn)", "Potency": "inconclusive: 33.8 µM [inhibitor, single point]"}, {"molecule": "Cn1c(=O)c(=O)n(C)c2cc(S(=O)(=O)Nc3ccc4c(c3)OCCO4)ccc21", "Potency": "inconclusive: 21.3 µM [inhibitor, single point]"}, {"molecule": "CCN(CC)CCNC(=O)c1ccc(NC(=O)COc2ccccc2F)cc1", "activity change, negative = inhibition": "inactive: -1.73%"}, {"molecule": "Cc1cccc(/C=C2/Sc3ccc(C(=O)N4CCOCC4)cc3NC2=O)c1", "Potency": "inconclusive: 37.9 µM [inhibitor, single point]"}, {"molecule": "COc1ccc(S(=O)(=O)c2nnn(-c3cc(Cl)c(OC)cc3OC)c2C)cc1", "activity change, negative = inhibition": "inactive: 5.9%"}, {"molecule": "CC1=NN(c2nc(-c3ccc(C)cc3)cs2)C(=O)C1N=Nc1cccc(O)c1", "note": "(stereo not drawn)", "Potency": "inconclusive: 12 µM [inhibitor, partial curve]"}, {"molecule": "Cn1c(=O)c2c(-c3ccccc3)n3c4ccccc4nc(-c4ccccc4)c3c2n(C)c1=O", "activity change, negative = inhibition": "inactive: -0.967%"}, {"molecule": "COc1ccc(OC)c2[nH]c(C(=O)N/N=C/c3ccccc3O)cc12", "Potency": "inconclusive: 19 µM [inhibitor, partial curve, poor fit]"}, {"molecule": "N#C/C(=C(/O)c1ccc(Br)s1)c1nc2ccccc2[nH]1", "Potency": "inconclusive: 3.38 µM [inhibitor, partial curve, poor fit]"}, {"molecule": "O=C(Nc1ccccc1)c1cnc2n(c1=O)CCS2", "Potency": "inconclusive: 19 µM [inhibitor, single point]"}, {"molecule": "COc1ccc(C(=O)NCC(c2cccnc2)N2CCc3ccccc3C2)cc1OC", "note": "(stereo not drawn)", "Potency": "active: 0.675 µM"}, {"molecule": "NC(=O)c1ccccc1OCC(=O)Nc1ccc2c(c1)CCC2", "Potency": "active: 15.1 µM"}, {"molecule": "CCc1cccc2c(C(=O)COC(=O)c3cnc(C)cn3)c[nH]c12", "activity change, negative = inhibition": "inactive: -3.17%"}, {"molecule": "CCOc1ccc(NC(=O)Cn2cc(C(=O)c3ccc(CC)cc3)c(=O)c3cc(C)ccc32)cc1", "activity change, negative = inhibition": "inactive: -4.76%"}, {"molecule": "Cc1ccc(-n2nc(C)c3c(C)c(CCC(=O)O)c(C)nc32)cc1C", "Potency": "inconclusive: 10.7 µM [inhibitor, partial curve, poor fit]"}, {"molecule": "Clc1ccc(-c2nnc(-c3ccccc3)o2)c(Cl)c1", "Potency": "active: 0.426 µM"}, {"molecule": "Cc1cc(C)c2c(=O)[nH]n(C3CCOC(C)(C)C3)c2n1", "note": "(stereo not drawn)", "Potency": "inconclusive: 37.9 µM [inhibitor, partial curve, poor fit]"}, {"molecule": "Cc1ccc(CNc2ccc(N3CCOCC3)c(Cl)c2)cc1", "Potency": "inconclusive: 26.9 µM [inhibitor, partial curve]"}, {"molecule": "CC1CN(C2=Nc3cccc4cccc2c34)CC(C)O1", "note": "(stereo not drawn)", "Potency": "inconclusive: 37.9 µM [inhibitor, partial curve, poor fit]"}, {"molecule": "CN(CC1CCCO1)S(=O)(=O)c1ccc(C(=O)Nc2ccc(S(N)(=O)=O)cc2)cc1", "note": "(stereo not drawn)", "activity change, negative = inhibition": "inactive: 1.63%"}, {"molecule": "O=C1C=CC(=O)N1CCCCCCN1C(=O)C=CC1=O", "Potency": "inconclusive: 10.7 µM [inhibitor, partial curve, poor fit]"}, {"molecule": "CC(C)OC(=O)c1cccc(-c2ccc(C=O)o2)c1", "Potency": "inconclusive: 4.26 µM [inhibitor, partial curve, poor fit]"}, {"molecule": "CN(C)c1ccc(/C=N\\NC(=S)SCN2C(=O)C3CCC(C)(C2=O)C3(C)C)cc1", "note": "(stereo not drawn)", "Potency": "active: 8.49 µM"}, {"molecule": "CCCn1c(CCc2ccccc2)n[nH]c1=S", "activity change, negative = inhibition": "inactive: 2.15%"}, {"molecule": "CCOC(=O)c1c(N)sc2c(O)c(Br)ccc12", "Potency": "inconclusive: 37.9 µM [inhibitor, single point]"}, {"molecule": "Cc1n[nH]c(=O)n1-c1ccc(OCc2ccccc2)cc1", "Potency": "active: 21.3 µM"}, {"molecule": "O=C(CCn1c(=O)[nH]c2ccsc2c1=O)N(CCc1ccccc1)Cc1ccccc1", "activity change, negative = inhibition": "inactive: 4.16%"}, {"molecule": "CCNC(=S)SCCOc1ccccc1C", "Potency": "inconclusive: 23.9 µM [inhibitor, partial curve, poor fit]"}, {"molecule": "CNC(=O)c1cc(C(=O)c2ccc(C(F)(F)F)cc2)c[nH]1", "Potency": "inconclusive: 16.9 µM [inhibitor, partial curve, poor fit]"}, {"molecule": "CN(Cc1ccccc1)S(=O)(=O)c1ccc(NC(=S)NC(=O)C2CCCC2)cc1", "activity change, negative = inhibition": "inactive: 2.09%"}, {"molecule": "S=C(Nc1ccc(Br)cc1)NC1CCCCC1", "Potency": "active: 10.7 µM"}, {"molecule": "CC1CCCCC1NC(=O)/C(C#N)=C/c1ccccc1F", "note": "(stereo not drawn)", "Potency": "inconclusive: 26.9 µM [inhibitor, single point]"}, {"molecule": "O=C(Nc1ccc2c(c1)OCCO2)c1cc(-c2ccccn2)nc2ccc(Br)cc12", "activity change, negative = inhibition": "inactive: -3.9%"}, {"molecule": "CCCCc1nc2cc(C(=O)N3CCCCC3C(=O)OC)ccc2o1", "note": "(stereo not drawn)", "Potency": "active: 15.1 µM"}, {"molecule": "O=C(COC(=O)C1COc2ccccc2O1)NC(=O)Nc1ccc2c(c1)OCCO2", "note": "(stereo not drawn)", "Potency": "inconclusive: 23.9 µM [inhibitor, single point]"}, {"molecule": "COc1ccc(C(=O)Nc2nnc(S(=O)(=O)N3CCCCCC3)s2)cc1OC", "Potency": "inconclusive: 12 µM [inhibitor, partial curve, poor fit]"}, {"molecule": "CC1CCCCN1C(=O)CSc1nnc(-c2ccccc2F)o1", "note": "(stereo not drawn)", "Potency": "inconclusive: 19 µM [inhibitor, partial curve]"}, {"molecule": "CC1=CC(C)=Nc2ccc(C)cc2N1", "Potency": "active: 15.1 µM"}, {"molecule": "C/C(N)=C(/C#N)C(=O)CSc1nnc(SCc2ccc(Cl)cc2)s1", "Potency": "inconclusive: 9.53 µM [inhibitor, partial curve, poor fit]"}, {"molecule": "CSc1ccc(Cl)c(C(=O)N2CCOc3ccccc32)c1", "activity change, negative = inhibition": "inactive: 5.38%"}, {"molecule": "CCOC(=O)c1c(C)oc2ccc(OS(C)(=O)=O)cc12", "Potency": "inconclusive: 26.9 µM [inhibitor, partial curve, poor fit]"}, {"molecule": "CCOC(=O)Cc1nnc(NC(=O)C23CC4CC(CC(C4)C2)C3)s1", "Potency": "inconclusive: 30.1 µM [inhibitor, partial curve, poor fit]"}, {"molecule": "O=C(OCC(=O)N1CCN(c2ccccc2)CC1)c1cccs1", "Potency": "inconclusive: 37.9 µM [inhibitor, single point]"}, {"molecule": "CC1CCCC(C)N1C(=O)CSc1nnc(-c2ccco2)n1C", "note": "(stereo not drawn)", "activity change, negative = inhibition": "inactive: 4.44%"}, {"molecule": "Cc1cc(N/C=C\\c2nnnn2-c2ccccc2)no1", "Potency": "inconclusive: 37.9 µM [inhibitor, partial curve, poor fit]"}, {"molecule": "Cc1cc(C)n(C(=O)/C(C#N)=N/Nc2cc(Cl)cc(Cl)c2)n1", "Potency": "inconclusive: 21.3 µM [inhibitor, partial curve]"}, {"molecule": "Oc1ccccc1/C=N/n1c2ccccc2c2ccccc21", "Potency": "inconclusive: 42.6 µM [inhibitor, partial curve, poor fit]"}, {"molecule": "O=C(c1cccc(S(=O)(=O)Nc2ccccc2F)c1)N1CCN(c2ccccc2F)CC1", "Potency": "inconclusive: 33.8 µM [inhibitor, partial curve, poor fit]"}, {"molecule": "O=C1N[C@@H](Cc2ccccc2)[C@@H](c2ccco2)O1", "activity change, negative = inhibition": "inactive: 0.9%"}]}]}
